From PubChem BioAssay AID1508624 (National Center for Advancing Translational Sciences (NCATS), 2021)
Among all 48,000 compounds or so, about 120 (0.25%) were called active. Another 4% or so got no clear call; they are omitted. Calls follow the shape of the dose curve; as a rule, active = well fitted activation curve with a large enough effect; inconclusive = small, poorly fitted or top-dose-only effect, or another doubt; inactive = no such curve, though single readings can be large or run the other way. The list shows a part of the results.

assay: Primary qHTS for Identification of Small Molecule Activators of Huntingtin-Antisense Promoter Activity; conditions: HEK293 HTT-AS promoter firefly luciferase reporter, 24 h; series mostly up to 57.5 µM; activity change, positive = activation: at the top concentration; also: nearly all actives have a fitted effect of over 55% in size
Summary of the method: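 HEK293 luciferase promoter-reporter cells (2,500/well) plated 24 h, then compounds added at up to 57.5 uM final for 24 h at 37 °C. Firefly luminescence by Dual-Glo, normalized to vehicle (0%) and zero RLU (-100%).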

Activity change, positive = activation, inactive:
COCCCn1c(=O)c2sccc2n2c(CCCC(=O)NC3CCC(C)CC3)nnc12 (stereo unspecified) -7.43%
CCCCCCCc1ccc(CCc2cccc(O)c2C(=O)O)cc1 -9.74%
Cc1cccc(C)c1-n1ncc(C(=O)N2CCN(c3ncccn3)CC2)c1C1CCN(C(=O)OC(C)(C)C)CC1 15.2%
O=C(COc1ccc(F)cc1)Nc1nnc(SCc2cc(=O)n3ccccc3n2)s1 -0.817%
CCC(C=C[C@@H]1OC(=O)C=C[C@H]1C)=C[C@H](C)CC=CC(C)=C[C@@H](C)C(=O)[C@@H](C)[C@H](O)[C@@H](C)CC(C)=CC(=O)O -35.7% [at 2.23 µM, percent change from vehicle, -100% = no light]
COc1ccc(N2Cc3cccc(C(=O)Nc4ccc(Cl)cc4)c3C2=O)cc1 -19.4%
COc1cccc(Cn2c(SCc3ccc(C(=O)N4CCCCC4)cc3)nc3ccncc32)c1 -48%
Cc1cc(Cl)ccc1NC(=O)CN1C(=O)COc2ccc(S(=O)(=O)Nc3ccccc3)cc21 -13.3%
Cc1ccc(CN(Cc2ccco2)C(=O)COc2cccc(C)c2C)o1 -29.4%
CCOC(=O)C1CCCN(C(=O)c2ccc3c(c2)sc2nc(-c4ccc(C)cc4C)cn23)C1 (stereo unspecified) 1.69%
Cc1ccc2c(=O)cc(C(=O)Nc3sc4c(c3C(=O)NCC3CCCO3)CCCC4)oc2c1C (stereo unspecified) 5.4%
Cc1ccc(Cl)cc1NC(=O)CCc1c(C)nc2c3cccnc3nn2c1C -19.1%
O=C(c1cccc(Cl)c1)N1c2ncnn2C2(CCCCC2)[C@@H]2CCCC[C@@H]21 -40%
COc1ccc(-c2ccc3c(N)c(C(=O)NCc4ccc(C)cc4)sc3n2)cc1 -13.5%
Cc1ccc2c(c1)N(C(=O)N1CCC(C(=O)NCCc3ccccc3)CC1)CC(C)O2 (stereo unspecified) -22%
CC(C)(C)OC(=O)N1CCC(c2c(C(=O)NCCN3CCOCC3)cnn2-c2ccc(F)cc2)CC1 -12.7%
O=C(Cn1nc(-c2ccccc2)c2cnc3ccc(F)cc3c21)NC1CCCC1 0.319%
CCOC(=O)C1CCN(c2cc(C)nc3c(-c4ccccc4OC)c(C)nn23)CC1 -45.7%
O=C(Nc1nnc(S(=O)(=O)N2CCCCCC2)s1)c1ccccc1F 23.6%
CCOc1cccc2sc(N3CCN(C(=O)C(C)(C)C)CC3)nc12 24.8%
Cc1nc(N2CCOCC2)c2c(C(=O)N(C)Cc3ccccc3)c(C)oc2n1 -1.91%
Cc1ccc(-c2nnc(SCC(=O)N3CCCc4ccccc43)o2)cc1 -4.41%
CCCCNc1nc(Oc2ccc(=O)n(-c3ccccc3)n2)nc(N(CC)CC)n1 -37%
Cc1cc(NC(=O)CSc2nc3c([nH]c4ccccc43)c(=O)n2-c2ccccc2F)no1 -27.9%
COc1cc(NC(=O)c2ccc3c(Cl)c4c(nc3c2)CCC4)cc(OC)c1OC 4.14%
CC(=O)c1cccc(-n2c(=O)c3c4c(sc3n(CC(=O)Nc3ccccc3F)c2=O)CN(C(C)=O)CC4)c1 3.69%
CC(C)(CC(=O)OCC(=O)Nc1ccccc1F)CC1=NS(=O)(=O)c2ccccc2N1 -30.7%
O=C(COc1ccc([N+](=O)[O-])cc1)N1CCC(c2nc3ccccc3s2)CC1 -77.7%
CCc1ccc(CNC(=O)C2CCN(c3nnc(C)c4c(C)n(-c5ccc(C)cc5)nc34)CC2)cc1 -11.5%
CCOc1ccc(N(C(C)C(=O)NCCSc2ccc(Cl)cc2)S(C)(=O)=O)cc1 (stereo unspecified) -43.8%
COc1cc([C@H]2Oc3cc([C@H]4Oc5cc(O)cc(O)c5C(=O)[C@H]4O)ccc3O[C@H]2CO)ccc1O -26.1%
COc1cc(OC)cc(C(=O)Nc2ccc(-c3nc4ccccc4s3)c(C)c2)c1 24.8%
Cc1ccc(N2C(=O)CS(=O)(=O)C23C(=O)N(Cc2ccccc2C)c2ccccc23)cc1Cl (stereo unspecified) -26.3%
COc1ccc(NC(=O)Cn2nc(-c3ccccc3)c3cnc4ccc(C)cc4c32)cc1 -7.66%
COc1ccc(-n2c(=O)[nH]c3cc(C(=O)NCCc4ccc(Cl)cc4)ccc3c2=O)cc1OC -27.1%
Cc1ccc(OCC(=O)Nc2ccc3c(c2)sc(=O)n3C)cc1 -15.5%
CCOC(=O)c1c(NC(=O)COc2ccc(CC)cc2)sc2c1CCCC2 -12.2%
Cc1ccc(-c2nc(C(=O)N3CCN(c4ccccc4)CC3)c3n2CCCCC3)cc1 -19.8%
COc1ccc(NC(=O)C(NC(=O)C2CCC(C)CC2)C(C)C)cc1 (stereo unspecified) -2.98%
CCC(Sc1ncccc1C(=O)Oc1ccccc1Cl)C(=O)Nc1ccccc1OC (stereo unspecified) -28.1%
CCCNC(=O)c1ccc2c(c1)nc(C)n2-c1cccc(C)c1 -10.3%
Cc1ccc2c(=O)c(C(=O)c3ccccc3)cn(CC(=O)Nc3ccc(C)c(Cl)c3)c2n1 -7.46%
Cc1nn(C)c2c1c(C(F)(F)F)cc(=O)n2C(C)C(=O)NCCC(C)C (stereo unspecified) -8.73%
Cc1ccc(C(=O)c2oc3ccccc3c2NC(=O)c2cc(=O)c3cc(C)ccc3o2)cc1 0.767% [at 11.5 µM, percent change from vehicle, -100% = no light]
COc1cccc(Cn2ccn(-c3ccc(F)cc3)c(=O)c2=O)c1 -3.91%
O=C(Nc1ccc(Cl)cc1)N1CCC(CN2CCCCCC2)CC1 26.3%
COc1ccc(NC(=O)Cn2cc(C(=O)c3ccncc3)c(=O)c3cc(C)ccc32)cc1Cl -14.3%
Cc1cccc(Cn2c(SCc3ccc(C(=O)NCc4ccccc4)cc3)nc3cccnc32)c1 -29.5%
COC(=O)c1ccc(-n2nnc(-c3nc(-c4ccccc4Cl)no3)c2C)cc1 0.65%
CCNC(=O)C1CCCN(c2ncnc3onc(C)c23)C1 (stereo unspecified) -9.98%
Cc1ccn2c(Nc3ccccc3C)c(-c3ccncc3)nc2c1 24.8%
CN1CCN(c2c(F)cc3c(=O)c(C(=O)O)cn4c3c2OCN4C)CC1
CCN(CCN(C)C)C(=O)Cn1ncc2c([nH]c3ccc(C)cc32)c1=O -4.89%
Cc1ccc(CNC(=O)C2CCN(Cc3nc(-c4ccccc4C)oc3C)CC2)cc1 -6.5%
CCCCn1c(CN2CCN(c3ccc(OC)cc3)CC2)nc2c1c(=O)[nH]c(=O)n2C -16.5%
Cc1cccc(NC(=O)CSc2nnc(CNC(=O)c3cccc(C)c3)n2-c2ccccc2)c1 -17.6%
Cc1ccccc1Cn1c(-c2cccs2)nc2ccccc21 -29.6%
COc1ccc(-c2noc(CN(C(=O)c3ccccc3Cl)C(C)C)n2)cc1 -19.1%
Cc1ccc2nc(CSc3nnc(NC(=O)CC(C)C)s3)cc(=O)n2c1 -0.573%
Cc1ccc(Cn2c(CN3CCC(C(=O)NCc4cccnc4)CC3)cc3ccccc32)cc1 -16.8%
CCOc1ccc(CNC(=O)CCC(=O)N2Cc3ccccc3Oc3ncccc32)cc1 -6.81%
CCOc1ccccc1NC(=O)c1ccc2c(c1)CCN2S(C)(=O)=O -4.74%
COc1cc(C2c3c(-c4cc(C)ccc4O)n[nH]c3C(=O)N2Cc2cccnc2)cc(OC)c1OC (stereo unspecified) -4.09%
Cc1ccc(-n2c(SCC(=O)N3CCc4ccccc43)nc3c([nH]c4ccccc43)c2=O)cc1 8.93%
CCn1cc2nc(SCC(=O)Nc3cc(OC)ccc3OC)n(Cc3ccc(Cl)cc3)c(=O)c2n1 -22.3%
O=C(Nc1ccc(OC(F)(F)F)cc1)c1cc2c(=O)n3ccccc3nc2s1 -0.645%
CCS(=O)(=O)N1CCc2cc(C(=O)Nc3cc([N+](=O)[O-])ccc3C)ccc21 -20.8%
O=C(CCn1c(=O)c2cccn2c2cccnc21)N1CCN(c2ccc(F)cc2)CC1 -15.5%
COc1ccc(C(=O)Nc2ccc3nc(SCC(=O)N4CCCC4)sc3c2)cc1 -8.59%
COc1ccccc1CCNC(=O)Cn1ccc2cc(S(=O)(=O)N3CCCCC3)ccc21 -38.5%
CC(C)(C)CC(C)(C)c1ccc(O)c(Cc2ccc(Cl)cc2Cl)c1 -0.121%
CCCC(=O)Nc1nnc(SCc2cc(=O)n3ccccc3n2)s1 -5.97%
O=C(NC1CCCCC1)c1ccc2c(c1)N(Cc1ccccc1F)C(=O)c1ccccc1S2 -1.9%
Cn1c(=O)c(=O)n(C)c2cc(S(=O)(=O)N3CCCC3C(=O)Nc3cccc(F)c3)ccc21 (stereo unspecified) -3.8%
CCc1ccccc1NC(=O)c1nn(-c2ccc(C)cc2)c(=O)c2c1c1ccccc1n2C 15%
CC(C)c1cc(C(=O)NCc2ccc(F)cc2)no1 29.4%
CCS(=O)(=O)n1nc(-c2ccco2)nc1NCc1ccc(C(C)C)cc1 10.2%
CC(=O)Nc1ccc(NC(=O)C(NC(=O)C2CCC(C)CC2)C(C)C)cc1 (stereo unspecified) -16.9%
CN(C)CCOc1ccc(C(=C(CCCl)c2ccccc2)c2ccccc2)cc1 -12%
Cc1ccc(-n2cnc3cc(C(=O)NC4CCCCCC4)ccc32)c(C)c1 -19.9%
COc1ccc(C)cc1NC(=O)C1CCC(CNS(=O)(=O)c2ccc3c(c2)CCCC(=O)N3)CC1 (stereo unspecified) -36.5%
CCc1ccc(Cn2nnc3c(=O)[nH]c(C4CCCN(C(=O)c5cccc(Cl)c5)C4)nc32)cc1 (stereo unspecified) -23.3%
O=C(Nc1ccc(F)cc1)c1ccc(CN2CC(=O)N3CCCCC3C2=O)cc1 (stereo unspecified) -12.6%
CC(=O)c1cccc(NC(=O)CCS(=O)(=O)c2ccc3c(c2)n(C)c(=O)c(=O)n3C)c1 -6.91%
COc1ccc(OC)c(NC(=O)CSc2c3c(nc4cc(Cl)ccc24)CCCC3)c1 -12.5%
NC(=O)CSc1nc2cc3c(cc2c(=O)n1CCCCCC(=O)NCc1ccc2c(c1)OCO2)OCO3 11.7%
O=C(Nc1ccccc1C(F)(F)F)C1(S(=O)(=O)c2ccc(Cl)cc2)CC1 -10.4%
CN1CC(=O)N(CC(=O)Nc2cccc(C#N)c2)c2ccccc2C1=O -7.14%
COc1ccc(OC)c(NC(=O)C2CCCN(S(=O)(=O)c3ccc4[nH]c(=O)ccc4c3)C2)c1 (stereo unspecified) -16.7%
CCOC(=O)N1CCN(Cc2nc3cc(NC(=O)c4ccc(F)cc4)ccc3n2C(C)C)CC1 -38.5%
COc1ccc(-c2cn3c(n2)sc2cc(C(=O)NCC(C)c4ccccc4)ccc23)cc1 (stereo unspecified) 27.6%
